# According to the supplement of paper PMC3334620:
# In all, about 33,000 sequences were measured (“E-score (-0.5 to 0.5)”: median about -0.017, highest 2% from about 0.3 on). This is one part of the list.
# Biological target: T1, Sut1 (UniProt P53032)
# T1 sequence: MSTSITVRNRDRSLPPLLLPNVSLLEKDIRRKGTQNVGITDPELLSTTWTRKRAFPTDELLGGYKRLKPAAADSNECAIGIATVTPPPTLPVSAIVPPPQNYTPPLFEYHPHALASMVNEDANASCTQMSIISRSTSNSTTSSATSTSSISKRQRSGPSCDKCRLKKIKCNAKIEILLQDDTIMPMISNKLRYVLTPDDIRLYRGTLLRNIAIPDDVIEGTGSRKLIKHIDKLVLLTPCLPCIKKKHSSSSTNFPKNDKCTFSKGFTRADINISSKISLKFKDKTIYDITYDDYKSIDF
# Test: PBM E-score (8-mer binding enrichment) (E-score (-0.5 to 0.5)); higher = stronger / more preferred TF binding; most listed sequences are background and not binding sites
# Conditions: protein concentration: 200 nM; construct: GST-full length
# Experimental: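 Universal 'all 10-mer' protein binding microarrays (Agilent AMADID 015681) probed with GST-tagged S. cerevisiae TFs (full-length or DBD) made by in vitro transcription/translation (PURExpress), about 100-200 nM. Bound TF was detected with fluorescent anti-GST. Each ungapped 8-mer (which stands for itself and its reverse complement) is scored by the PBM enrichment score (E-score), a modified Wilcoxon-Mann-Whitney statistic from -0.5 to +0.5, computed with the Universal PBM Analysis Suite. Scale: above 0.35 generally sequence-specific binding.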
row,Sequence,PBM E-score
1,AAACGCTT,0.0228
2,AGTTAACC,0.119
3,AGGAGCAT,-0.108
4,AATACATT,0.245
5,CGAGACGC,0.0426
6,AAGCGTGT,-0.26
7,AGTTGTTA,0.124
8,ATCCGCCG,0.0713
9,AGCCAGTG,-0.265
10,TCGGGTCA,0.084
11,CGCTATAA,0.0282
12,AGTACTAT,0.0894
13,CCAAATGC,0.00488
14,ACTATGCC,-0.0101
15,ATTACTCA,0.162
16,AACACTCT,0.113
17,CCCTGCGG,-0.0369
18,AAAAGTGG,0.129
19,ACAATGTC,0.0704
20,GGGCCCCA,-0.22
21,CATAGGTC,-0.0441
22,AGAAGCCC,0.167
23,CGCAGACG,0.0141
24,AGTCCTCA,0.0293
25,ATCCTGCA,-0.118

row,Sequence,PBM E-score
1,CAAGTACG,-0.155
2,ATTGAATG,0.236
3,GACCGATC,-0.111
4,GTGTTGAA,0.0558
5,AAGGTCCA,-0.135
6,CCGCGCAG,0.118
7,CCGTATCG,-0.11
8,GGGCCACA,-0.161
9,CCGTCGTC,-0.227
10,ATTCGCGC,0.0499
11,CGCTTAAC,0.0539
12,CAGACGAG,-0.263
13,AGTGACAC,-0.0313
14,AATCTACA,0.122
15,CCCTACTC,-0.123
16,AGCTTGAC,-0.0781
17,CCCCCTTA,-0.263
18,GAATCACA,0.0387
19,AACCTATC,0.132
20,AAAGCTCT,-0.177
21,AGCGGAGG,-0.201
22,CTTGGCTC,-0.095
23,AGATACCG,0.0712
24,ACGTAGGC,-0.171
25,GGCGTTAC,-0.213

row,Sequence,PBM E-score
1,ACCTTAGG,-0.192
2,CCGTCACA,-0.279
3,TACTTTCA,0.276
4,ACGAAGGG,-0.206
5,CTTACATA,0.198
6,CAATCGTC,0.0186
7,GTAGCTCA,-0.0732
8,TAACGACA,0.144
9,GATTCGGC,0.0544
10,ATCAAAGA,0.0209
11,CCCTAGAG,-0.344
12,GCCTATCC,-0.109
13,AGCATGTC,-0.0445
14,ACGTTCAA,0.0492
15,GGATAACA,0.143
16,ATATTAGG,0.163
17,AGTACCCC,-0.077
18,AGGATGGA,-0.195
19,ATCGACAA,0.115
20,ATTGCAAT,0.0774
21,CTTCGAAC,0.0649
22,GACTCACC,-0.0917
23,GCCACTCA,-0.126
24,TATAGGAA,0.146
25,CAGTTGTC,-0.144

row,Sequence,PBM E-score
1,GTATCAGA,0.017
2,GGACTGCA,0.0549
3,CTTGGGTA,-0.0404
4,ATCGGCGG,0.00281
5,GACTAGAA,0.198
6,ACATCAGC,-0.0232
7,CGGACCCC,0.112
8,AAACTAAT,0.292
9,ATCTTCGG,0.23
10,GTTACAAC,0.106
11,ACGTGCCT,-0.173
12,ATTTGGGA,0.0433
13,ATCCCATC,-0.16
14,ATGTCAAT,0.134
15,GTCCCCAC,-0.143
16,GAGTGGTA,-0.0154
17,AGCCTGCG,-0.222
18,AATCGAAC,-0.0301
19,ACCTCCAA,-0.127
20,ATGGAAAA,0.0999
21,ACGGGTCA,-0.337
22,CCTGATCG,-0.264
23,AAATTGAT,0.196
24,ATTTGTGA,0.043
25,GAGCTAAA,0.106

row,Sequence,PBM E-score
1,TCCTGCCA,-0.28
2,ATCAATGC,0.0217
3,AACATCCA,-0.0116
4,GGACAAAC,-0.0488
5,GAAAAGGA,0.217
6,ATAGCCAG,-0.129
7,CCACCAAG,-0.22
8,AAACCCAG,-0.0905
9,ACATCAAC,0.106
10,AATAACAC,0.264
11,GACCAAGC,0.0643
12,AGGCTGAG,-0.0842
13,CCAAAGTA,0.0294
14,GAAGTTAA,0.0179
15,ACATCAAT,0.201
16,CAAACCAC,-0.129
17,CGCTGTGC,-0.114
18,CGACAAGC,-0.302
19,CAACATCC,-0.0349
20,CCGGGAGC,-0.0765
21,AGGGACCT,-0.21
22,ATGATCTG,0.0866
23,AAATACAT,0.194
24,ACAACTGC,-0.0476
25,GATAGCAA,0.155

row,Sequence,PBM E-score
1,ATGCATTA,0.208
2,AGGACAAT,0.08
3,ACTGAGCC,-0.107
4,ACACAGAG,-0.0985
5,CCGTTATA,0.0818
6,GAGTCAGA,0.0675
7,AGTGTTAA,0.112
8,AAAAACGG,0.188
9,CCAATTAA,0.202
10,ACTAACAG,-0.00417
11,CTGTAGAA,0.0623
12,AGAGGAAA,0.066
13,CCGGCTGC,0.0356
14,CAATAAAA,0.136
15,AATCTCTG,-0.129
16,CTGATGGA,-0.218
17,AGAGAGAA,-0.0107
18,AAAAGGCC,-0.0796
19,ACGCCTTG,-0.0406
20,AGTCTGAA,-0.0182
21,AAAGCTTT,0.086
22,AGTACGGA,0.374
23,ACTCAGAC,-0.0915
24,ATAGTCTC,0.108
25,AAAACAGT,0.209

row,Sequence,PBM E-score
1,ACAGCCCG,-0.203
2,GCAGATTA,0.023
3,CAGTGCCG,-0.102
4,CGGGGTAG,0.198
5,AATTATTC,0.317
6,AGAAATTC,0.126
7,ACCACCAC,0.108
8,AGCTAAGG,-0.046
9,AAATCGCA,0.0779
10,CCTTGTGA,-0.0988
11,CGCTGCCC,-0.21
12,CGGTTTCA,0.0548
13,CAAGGTGG,0.0129
14,CACAACGA,0.0234
15,GAGGCCTA,-0.179
16,CTGAGCGA,-0.162
17,AGGGCGCA,-0.238
18,ATGGAGGA,-0.156
19,CAGGGTCA,-0.206
20,CACGTATC,0.0318
21,GGTAAAAC,-0.0242
22,ACAATCCG,0.0559
23,CTAGCAAG,-0.169
24,CAAACCTG,-0.11
25,GGAGAACA,0.175

row,Sequence,PBM E-score
1,CAGAGAGA,-0.2
2,AAATCCAA,0.156
3,GAAGGAGA,-0.123
4,ATAACTGG,-0.0188
5,ACGGTTCA,-0.232
6,GAGTTACC,-0.0127
7,GAACCGTC,-0.0465
8,AGAGATCT,-0.113
9,AGGCACAA,-0.121
10,ACGGGCTC,-0.306
11,GCGCGACA,-0.0666
12,GCACCAAC,-0.055
13,CAGAGCTC,-0.157
14,CCCCACTA,-0.349
15,CAGCATAC,-0.165
16,ATCTATTG,0.0481
17,TACGACTA,-0.0667
18,GCCACTTA,0.00087
19,GAGGTGCC,-0.138
20,GGGAATGA,0.0337
21,AGACGCGG,0.152
22,TAGATGAA,0.112
23,CCCGCAAC,0.092
24,GAGGCTAA,-0.00314
25,CGGCAGGA,-0.0907

row,Sequence,PBM E-score
1,AAAAACTG,0.12
2,CGGTGGCC,0.023
3,ACGCTAGT,-0.122
4,CAACCTCA,-0.181
5,GCCCTTGA,-0.229
6,CTACTGCC,-0.11
7,CGGAAGAA,0.245
8,TACGAACA,0.131
9,AAGCTGCA,-0.0968
10,AAGGTGAG,-0.216
11,AAGCCTCT,-0.29
12,CAAATTGA,-0.0107
13,CCGAATTA,0.166
14,CACGGTTC,-0.23
15,AAGCACCC,-0.244
16,GCGCAGTA,-0.0391
17,AGAACAGG,-0.0934
18,CATAATCC,-0.127
19,TTGTTAAA,0.145
